Results on 35 sequences are retold here after the supplement of paper PMC10681739.

± gives the standard deviation of the averaged measurements. Over roughly 4,000 sequences, “arbitrary fluorescence units” has its median near 830; the highest 2% begin near 6,500. This part holds few or none of the hits.
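Note: Full-length recombinant human RUNX1 bound to double-stranded DNA microarray spots, detected with an Alexa488-labelled secondary antibody after the anti-RUNX1 primary, read as scanned spot fluorescence.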

Chain of UniProt Q01196 (Q01196 whole entry): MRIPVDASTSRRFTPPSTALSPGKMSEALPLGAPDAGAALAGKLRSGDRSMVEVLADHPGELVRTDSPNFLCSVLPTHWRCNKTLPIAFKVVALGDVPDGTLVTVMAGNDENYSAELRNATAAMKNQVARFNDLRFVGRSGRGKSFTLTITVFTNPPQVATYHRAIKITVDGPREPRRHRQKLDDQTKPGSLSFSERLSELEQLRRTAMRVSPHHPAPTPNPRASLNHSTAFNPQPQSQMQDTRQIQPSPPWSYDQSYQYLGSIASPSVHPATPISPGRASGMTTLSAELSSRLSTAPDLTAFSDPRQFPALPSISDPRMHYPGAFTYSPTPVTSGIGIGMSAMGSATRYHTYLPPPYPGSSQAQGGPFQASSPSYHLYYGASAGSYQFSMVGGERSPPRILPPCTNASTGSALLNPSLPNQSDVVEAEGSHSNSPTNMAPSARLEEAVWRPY

For the assay, the target named is RUNX1 (UniProt Q01196). The assay is described as follows: RUNX1 binding intensity (PBM fluorescence), RUNX1 alone (arbitrary fluorescence units); higher = stronger binding. The settings on record: RUNX1 concentration 2 nM; ETS1 concentration 0 nM. The procedure:
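gcPBM on 36-bp genomic-derived probes (partner site mutated) containing one RUNX1 site and no ETS1 site. Recombinant human RUNX1 (2 nM) was incubated alone or with ETS1 (25 nM) and detected by anti-RUNX1 antibody fluorescence. Values are medians over 4 replicate spots (not normalised). The probes sit in constant array flanks that are not printed.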
The sequence GTAGCCGGGTGTTACGGAGCGCTGCGGGCAAAGCAG had an RUNX1 binding intensity of 671.

In turn, CCCTTCGCTTGCGCTCCGCGTTCCCACAATGCAGTG had an RUNX1 binding intensity of 1030. As for TGCAGCCCCCACAGCCATCATCTTTCTGAGTCAACA, the figure is 846; as for TGGGCGCGCTGCGGGAGCTGGGCTTCACGTACATGA, 653.

Regarding CCACCGCCCCGCAGCTCACACCGTATGTGCGACAGA, the RUNX1 binding intensity worked out at 898. Next, GAGGTGCCCGTCAACCACCTGATCCGTCAGGGGCCC: 692.

In turn, GGTGAGCAGCCGATAGCCTGGAGCAGCACCCACACC registered an RUNX1 binding intensity of 715. Next, GCAACCGCACTCCGAAAGCTCTGGGCCTGAAGAGTC: 943; GGCCTCCTTCGGAGGCTCCCCTCCACCCACAAGCAG: 736; ATAGTCACCGTTCCAGCCCTCCTCCACCGCACTTCT: 1300. Turning to GCCCGCGGCTCCGTAAGCGGCTGCGGCCCCGACCGG, the RUNX1 binding intensity came to 684. Next, CATTATTAACCTTCAGGCAAATCCCCACAGCCGCCA: 997; TAGATGCAGAGAACCACAAACATTTACGTACGGCTA: 1050; AGGGTTTGTGGGACCTGGTGACTCACGGGATCTGGG: 703. Turning to TCATTGAGGTTTCTGAAGCACACAGCAAGTCAGAAA, the RUNX1 binding intensity stood at 797. As to TCGCCCACCTCCCCACCTCTCAAAAGACCACAGGCA, the RUNX1 binding intensity worked out at 1400.

TGCCTGGAATACTGAAGGCAGGTGGTTGGCTCTAGT came in with an RUNX1 binding intensity of 771.

In turn, ACCTGTAGGTGGAAGTCTGTGGCTTTATTTACACAG displayed an RUNX1 binding intensity of 788 ± 52. Next, TCCCGGGGAGGAGGTGGCGAGAATGCGGGGGTGGGC: 831; GCTCTGCATCTTGTGGGCTAAGGAATCAGGTCCCAC: 828. Next, CTGTGGGTTCGGCAGTAAACTCTGACCTCCTATTTA: 892; GCTTAAGGATGGGACAACTAGAGTGGGTTACTCTGC: 730. On to TGCCTCTGAACCGCGCTCTCGCGAGTTGCCGTAGCC, for which the RUNX1 binding intensity was 879.

Regarding TCACAAACCCACACGGCCCAGCCCCCAGTTCCATTC, the RUNX1 binding intensity was 1390. As for AGACCCGGACCCGAACCTTGGCGCGGTGACGCTAGT, the figure is 699. Next, TGAGCGCCTGAACAGCTCTCCCAGCAACCACCTCTC: 840; ACGACTGGAACGTGGACAACCAGTGGTTGTTCCTCC: 816. As for CTCCCTAGCCCGCGGTGAGCGGGGGAATCGGCACTC, the figure is 875; as for GTTCACGTTCAGCTCTTAGTGCGCGGTGAGTTCCCC, 700. Regarding AGAGGCAATCACACTCTCACTGGGGTTCCCGCAGCT, the RUNX1 binding intensity amounted to 709. Next, CATTGCCTGATCTGACCTCTGGGGAGGCCACAGAGC: 869; TGAGCCTTGGAATGGAATGATTCACCACAATACTGT: 733; GGCCTGCGGTCCGGGGCCGCTCGGCAGGCGCAAGCC: 1020. Next, CAGAGAAACATGAAGAACAGTGGTTTCAACTGAAAT: 755. Next, ACACCACTAACAACCACGGCCGCTTGCTGAACCTGT: 970 ± 38.
